Out of some 72,000 compounds screened, about 1,600 (2.2%) were called active. This list was built around the results that the source calls inconclusive (neither active nor inactive); the mix of calls is not that of the screen. Calls follow the shape of the dose curve; as a rule, active = well fitted inhibition curve with a large enough effect; inconclusive = small, poorly fitted or top-dose-only effect; inactive = flat fitted curve, though single readings scatter. No potency is given beside an inconclusive call; the fits are too rough.
The molecules below were run against Luciferin 4-monooxygenase (Photinus pyralis) (UniProt P08659) (assay: qHTS Assay for Inhibitors of Firefly Luciferase). Details: purified firefly luciferase, luminescence, 8 min; series mostly up to 57.1 µM; activity change, negative = inhibition: at the top concentration.
Summary of the method: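 Inhibition of light generation by firefly luciferase from ATP and luciferin was profiled with concentration-response curves per sample, ATP held at 10 uM within the enzyme's linear range. Plates were read by luminescence after an 8-minute ambient incubation.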
% is scaled to controls: 0 for no effect and ±100 for the full control effect; potency is read from the fitted curve at half-maximal effect; tags tell the direction and shape of the fitted curve.
Also: nearly all actives have a fitted effect of over 40% in size.

Sequence of UniProt P08659 (P08659 whole entry, looked up): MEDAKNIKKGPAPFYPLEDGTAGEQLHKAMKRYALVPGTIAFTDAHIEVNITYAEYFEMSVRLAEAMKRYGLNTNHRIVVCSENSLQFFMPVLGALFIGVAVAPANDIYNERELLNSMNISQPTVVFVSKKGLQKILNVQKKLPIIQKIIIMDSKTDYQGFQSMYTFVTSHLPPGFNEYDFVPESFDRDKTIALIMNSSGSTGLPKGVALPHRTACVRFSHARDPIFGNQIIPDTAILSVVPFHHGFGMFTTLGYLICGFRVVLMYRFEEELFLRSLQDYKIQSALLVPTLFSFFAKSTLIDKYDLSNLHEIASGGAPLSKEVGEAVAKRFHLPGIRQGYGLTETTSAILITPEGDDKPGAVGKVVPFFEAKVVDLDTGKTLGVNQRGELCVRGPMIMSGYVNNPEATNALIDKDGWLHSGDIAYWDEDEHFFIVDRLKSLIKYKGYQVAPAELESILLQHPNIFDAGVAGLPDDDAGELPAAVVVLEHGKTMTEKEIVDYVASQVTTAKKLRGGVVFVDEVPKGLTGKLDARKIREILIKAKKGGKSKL

Compound	Potency	activity change, negative = inhibition
COCCNC(=O)c1cc(-c2cccc(OC)c2)on1	inconclusive [inhibitor, single point]	
CN(C)c1ccc(NC(=O)CCCc2ccccc2)cc1	active: 25.1 µM	
O=C(Nc1ccccc1)Nc1ccccc1C(=O)NCc1ccco1	inconclusive [inhibitor, partial curve]	
COC(=O)c1c(NC(=O)CN2CCOCC2)sc2c1CCC(C)C2 (centres undefined)	inconclusive [inhibitor, single point]	
Cc1cnc(CNc2nc(-c3ccc(N(C)C)cc3)nc3ccccc23)cn1	active: 0.794 µM	
Clc1ccc(OCc2nnc(-c3ccccc3Br)o2)c(Cl)c1	inconclusive [inhibitor, partial curve]	
CC(C)NC(=O)c1ccccc1-c1nc(-c2ccccc2Cl)no1	inconclusive [inhibitor, single point]	
Cc1noc(C(=O)Nc2ccc3c(c2)OCO3)c1Cl	active: 12.6 µM	
COc1ccc2nc(/N=C\N(C)C)sc2c1	inconclusive [inhibitor, partial curve]	
O=C(Nc1ccc(N2CCCC2)c(Cl)c1)c1ccc(Br)o1	inconclusive [inhibitor, partial curve]	
O=C(Nc1cccc(-n2cnnn2)c1)c1ccco1	inconclusive [inhibitor, full curve]	
COc1ccc(Nc2ccc3c(c2)=NC2(CCCCC2)[N+]=3[O-])cc1	inconclusive [inhibitor, partial curve]	
COc1ccc(/C=N/n2c(N)nc3ccccc32)cc1OC	active: 6.31 µM	
O=C(Nc1ccc2c(c1)OCO2)c1ccc(CN2CCOCC2)cc1	inconclusive [inhibitor, single point]	
CN=c1scc(C)n1/N=C/c1ccc(O)cc1	active: 12.6 µM	
COc1ccccc1OCc1nc2ccccc2[nH]1	inconclusive [inhibitor, single point]	
CCN(CC)CCCCOc1ccccc1OC		inactive: 0.967%
O=C(O)/C=C\C(=O)Nc1ccc2c(c1)-c1ccccc1C2		inactive: 1.02% [at 11.4 µM]
COc1ccc(-c2noc(N(C)CC(=O)Nc3cccc(C(F)(F)F)c3)n2)cc1	active: 25.1 µM	
COc1cc(NC(=O)c2cc3sccc3n2C)cc(OC)c1	active: 12.6 µM	
CCC(=O)OCC(=O)[C@@]1(OC(=O)CC)[C@H](C)C[C@@H]2[C@@H]3[C@H]([C@@H](O)C[C@@]21C)[C@]1(C)C=CC(=O)C=C1C[C@@H]3Cl		inactive: 1.65% [at 25.5 µM]
c1ccc(-c2cc(-c3nnc4sc(-c5ccccn5)nn34)[nH]n2)cc1	inconclusive [inhibitor, single point]	
CCCn1c(=O)c2ccccc2n2c(SCc3nc4ccccc4s3)nnc12	inconclusive [inhibitor, partial curve]	
CCOC(=O)c1cnc(SCc2nc(N)nc(Nc3ccc(C)cc3)n2)nc1N	inconclusive [inhibitor, single point]	
CCCCNC(=O)CCC(=O)Nc1ccc2nc(N3CCOCC3)cc(C)c2c1	inconclusive [inhibitor, partial curve]	
O=C1CCCc2nc(N3CCc4ccccc43)ncc21	inconclusive [inhibitor, full curve]	
Cc1ccc2nc(NC(=O)Cn3cc4c(n3)CCCCC4)sc2c1		inactive: 0.672%

Compound	Potency	activity change, negative = inhibition
CN(Cc1ccccc1)c1ncnc2c1cnn2-c1ccccc1	active: 12.6 µM	
O=c1onc2cnc3ccccc3n12	inactive	
O=C1c2cccnc2-c2ncccc21		inactive: 2.48%
CN/C=C1\C(=O)C(C)(C)Oc2ccc3ccc(=O)oc3c21		inactive: -1.86%
COC(=O)c1ccc(Oc2nc(NC(C)C)nc(N(C)C)n2)cc1		inactive: -2.61%
O=C(O)c1cc(-c2cccs2)nc2cc3c(cc12)OCCO3	active: 15.8 µM	
Brc1cccc(-c2nnc(-c3ccccc3)o2)c1	active: 15.8 µM	
COc1cccc2cc(C(=O)Nc3cccc(C)n3)c(=O)oc12	inconclusive [inhibitor, full curve]	
O=C(CSCCO)Nc1ccc(C2CCCCC2)cc1	inconclusive [inhibitor, single point]	
CCc1cc(=O)oc2cc(C)cc(O)c12		inactive: -1.71%
CCN1CCCC1CNC(=O)c1cc2c(C)nc3ccccc3c2o1 (centres undefined)		inactive: 2.36%
CCC(=O)Nc1ccc(NC(=O)c2ccco2)cc1	inconclusive [inhibitor, single point]	
CCCC(=O)Nc1ccc(NC(=O)c2cccc(OC)c2)nc1	inconclusive [inhibitor, single point]	
c1ccc(-n2cnc3cc(NCc4ccccn4)ccc32)cc1	inconclusive [inhibitor, partial curve]	
COc1ccccc1N1CCN(CCCCNC(=O)c2ccc(-c3ccc(C(C)=O)cc3)cc2)CC1	inconclusive [inhibitor, single point]	
CCOC(=O)c1c(C)[nH]c(C(=O)COC(=O)c2oc3ccc(OC)cc3c2C)c1C		inactive: 2.23%
COc1ccc(C(=O)Cn2nnc(-c3ccc(N4CCOCC4)cc3)n2)cc1OC	active: 10 µM	
CC(=O)c1c(C)[nH]c(C(=O)NCCc2ccccc2)c1C	inconclusive [inhibitor, single point]	
O=C(CSCc1ccco1)c1cccs1	inconclusive [inhibitor, single point]	
COc1cccc(NC(=O)c2cccc(OC)c2OC)c1	inconclusive [inhibitor, single point]	
CCOCCCNc1ccc(-c2ccccc2)nn1	inconclusive [inhibitor, single point]	
Cc1noc(C)c1-c1ccc2ncnc(N3CCOCC3)c2c1		inactive: -0.296% [at 2.29 µM]
Cc1ccccc1Cn1cc(NC(=O)c2cc3nc(-c4ccco4)cc(C(F)(F)F)n3n2)cn1	inconclusive [inhibitor, full curve]	
COc1ccccc1C(=O)N1CCN(c2nc3cc(C)c(C)cc3cc2C#N)CC1		inactive: -2.9%
CSc1ccc2c(c1)N(CCCN(C)C)c1ccccc1S2		inactive: 3.23% [at 11.4 µM]
CC(=O)C1=C(C)NC(SCC(=O)c2ccc(C)cc2)=C(C#N)C1c1ccco1 (centres undefined)		inactive: -14.5%
CC1(C)CC(=O)C(C(c2ccco2)C2C(=O)CC(C)(C)CC2=O)C(=O)C1		inactive: -3.11%

From PubChem BioAssay AID411 (National Center for Advancing Translational Sciences (NCATS), 2006)
